Laboratory results reported in PubChem BioAssay AID256 (DTP/NCI, 2004).
Inconclusive results and toxic doses are left out. The source holds more than one record for some entries. Only these are listed. An entry can have further records. Values given together are repeats across runs, samples, wells, individuals or studies. Records carry a tag for their origin. Letters count within one entry.

Test system: CD2F1 mice, L1210 leukemia ip, survival T/C
Assay: NCI In Vivo Anticancer Drug Screen. Data for tumor model L1210 Leukemia (intraperitoneal) in CD2F1 (CDF1) mice
Conditions: higher = longer survival
Outline: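 Read-out first: treated-group measurement over vehicle-control measurement, expressed as a ratio. Animals bore a transplanted tumor line and were dosed with compound or vehicle.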

CC([NH-])CC(C)[NH-].[Cl][Pt+2][Cl] (centres undefined)
T/C (endpoint: mean survival time, dose: 12.5 mg/kg/injection, schedule: Q04DX003 (ip), vehicle: saline with Tween-80): 153 % of control [sample A] and 118 % of control [sample B]

CCOC(=O)Nc1cc2c(c(N)n1)N=C(c1ccccc1)CO2
T/C (endpoint: median survival time, dose: 400.0 mg/kg/injection, schedule: Q01DX009 (ip), vehicle: saline with Tween-80): 122 % of control and 156 % of control

CC[C@](O)(C(=O)O)c1cc2n(c(=O)c1CO)Cc1cc3ccccc3nc1-2
T/C (endpoint: mean survival time, dose: 25.0 mg/kg/injection, schedule: Q04DX003 (ip), vehicle: water): 119 % of control and 178 % of control
T/C (endpoint: median survival time, dose: 10.0 mg/kg/injection, schedule: Q04DX002 (ip), vehicle: saline): 118 % of control, 124 % of control, 153 % of control

Nc1nc(N)c2c(Cl)c(CNc3ccc(Cl)c(Cl)c3)ccc2n1
T/C (endpoint: median survival time, dose: 12.5 mg/kg/injection, schedule: Q01DX009 (ip), vehicle: saline with Tween-80): 110 % of control and 150 % of control

CCCCNC(C)(C)C(SS)c1cccs1 (centres undefined)
T/C (endpoint: mean survival time, dose: 100.0 mg/kg/injection, schedule: Q01DX009 (ip), vehicle: other): 91 % of control and 153 % of control

CN(C)CCNc1ccc(CO)c2sc3ccc(O)cc3c(=O)c12
T/C (endpoint: median survival time, dose: 50.0 mg/kg/injection, schedule: Q01DX005 (ip), vehicle: saline with Tween-80): 118 % of control and 162 % of control
T/C (endpoint: median survival time, dose: 200.0 mg/kg/injection, schedule: Q01DX005 (ip), vehicle: saline with Tween-80): 103 % of control, 112 % of control, 157 % of control

CN(C)c1ccc2c(Nc3ccc(NS(C)(=O)=O)cc3)c3ccc(N(C)C)cc3nc2c1
T/C (endpoint: median survival time, dose: 400.0 mg/kg/injection, schedule: Q01DX009 (ip), vehicle: Klucel (hydroxypropylcellulose) (HPC)): 95 % of control and 180 % of control

O=S(=O)(O)O.[NH-]C1CCCCCC1[NH-].[Pt+2] (centres undefined)
T/C (endpoint: mean survival time, dose: 6.25 mg/kg/injection, schedule: Q04DX003 (ip), vehicle: dextrose): 109 % of control and 156 % of control

CO[C@@]12[C@@H]3N[C@@H]3CN1C1=C(C(=O)C(N3CCCC3)=C(C)C1=O)[C@@H]2COC(N)=O
T/C (endpoint: median survival time, dose: 48.0 mg/kg/injection, schedule: Q01DX001 (ip), vehicle: saline with Tween-80): 86 % of control and 172 % of control

NC(=O)c1c[se]c(C2OC(CO)C(O)C2O)n1 (centres undefined)
T/C (endpoint: median survival time, dose: 200.0 mg/kg/injection, schedule: Q01DX009 (ip), vehicle: water): 122 % of control and 198 % of control

CCc1nc(N)nc(N)c1-c1ccc(Cl)c(N=[N+]=[N-])c1
T/C (endpoint: median survival time, dose: 200.0 mg/kg/injection, schedule: Q01DX009 (ip), vehicle: distilled water + Tween-80): 121 % of control and 158 % of control
T/C (endpoint: median survival time, dose: 400.0 mg/kg/injection, schedule: Q01DX009 (ip), vehicle: distilled water + Tween-80): 111 % of control and 158 % of control
